Measured values reported in article PMC4336329 (PLoS ONE, 2015).
About 2,200 (0.71%) of roughly 310,000 compounds showed an effect of 50% or more. Effects have a minus sign here. This is one part of the list.

target: human ether-à-go-go-related gene (hERG) potassium channel (human, UniProt Q12809); assay: primary screen, population patch clamp on CHO cells stably expressing hERG
Sequence (Q12809 whole entry, looked up): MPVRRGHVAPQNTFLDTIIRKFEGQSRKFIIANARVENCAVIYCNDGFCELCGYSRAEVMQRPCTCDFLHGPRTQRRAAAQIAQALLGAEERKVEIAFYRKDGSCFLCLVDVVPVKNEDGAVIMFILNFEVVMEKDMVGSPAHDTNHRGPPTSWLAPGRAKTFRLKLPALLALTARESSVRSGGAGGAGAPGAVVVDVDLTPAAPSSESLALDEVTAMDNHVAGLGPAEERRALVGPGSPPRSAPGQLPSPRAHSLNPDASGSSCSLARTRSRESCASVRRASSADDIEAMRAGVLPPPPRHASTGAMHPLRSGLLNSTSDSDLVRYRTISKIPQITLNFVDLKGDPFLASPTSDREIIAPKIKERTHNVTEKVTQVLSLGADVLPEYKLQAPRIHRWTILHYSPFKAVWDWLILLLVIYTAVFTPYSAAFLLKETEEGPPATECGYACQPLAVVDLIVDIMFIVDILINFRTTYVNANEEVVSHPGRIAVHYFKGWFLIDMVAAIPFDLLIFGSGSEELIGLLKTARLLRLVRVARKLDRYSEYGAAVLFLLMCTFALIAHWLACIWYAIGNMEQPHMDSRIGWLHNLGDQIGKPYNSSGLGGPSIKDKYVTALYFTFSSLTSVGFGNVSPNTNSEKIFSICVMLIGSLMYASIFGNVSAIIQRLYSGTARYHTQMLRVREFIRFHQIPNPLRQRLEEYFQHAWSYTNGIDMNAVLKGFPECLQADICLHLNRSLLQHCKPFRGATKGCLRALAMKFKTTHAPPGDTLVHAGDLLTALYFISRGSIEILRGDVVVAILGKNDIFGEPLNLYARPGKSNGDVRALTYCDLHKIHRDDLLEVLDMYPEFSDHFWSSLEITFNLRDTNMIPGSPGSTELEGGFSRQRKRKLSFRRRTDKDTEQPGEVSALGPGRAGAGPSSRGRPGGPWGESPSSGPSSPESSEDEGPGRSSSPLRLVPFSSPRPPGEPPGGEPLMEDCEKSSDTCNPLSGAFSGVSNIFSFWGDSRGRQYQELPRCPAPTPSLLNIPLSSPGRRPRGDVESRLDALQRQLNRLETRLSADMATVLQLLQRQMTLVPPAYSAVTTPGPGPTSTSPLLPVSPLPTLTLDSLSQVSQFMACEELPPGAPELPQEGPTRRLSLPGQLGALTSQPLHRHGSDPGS

Row | Structure (SMILES) | hERG current change (%, negative = inhibition) at 1uM [%]
1 | Cc1noc(C)c1C(=O)Nc1nccs1 | 10.8
2 | O=C(CSc1ncnc2c1oc1ccccc12)Nc1cccc(F)c1 | 0.367
3 | CCOC(=O)c1cnc(SCC(=O)N2CCN(C(=O)c3ccco3)CC2)nc1N | -7.07
4 | COc1ccc2[nH]c(=O)c(CN(CCO)S(=O)(=O)c3ccc4c(c3)OCCO4)cc2c1 | 10.1
5 | COc1ccc(C(C(=O)NC2CCCCC2)N(C(=O)c2ccco2)c2ccccc2C(C)=O)cc1OC (stereo not drawn) | 16.2
6 | CC(C)N(C1=N/C(=C\c2ccco2)C(=O)N1c1ccccc1)C(C)C | 14.4
7 | N#CCCn1cc(/C=N/O)c(-c2cccc([N+](=O)[O-])c2)n1 | 5.99
8 | CCNc1nc2c(c(=O)n(C)c(=O)n2C)n1CCCc1ccccc1 | 2.25
9 | [O-][n+]1c2c(nn1-c1ccccc1Cl)-c1nonc1CC2 | 8.7
10 | C/C(CC(=O)Nc1ccc(N(C)C)cc1)=N\NC(=O)c1ccc([N+](=O)[O-])cc1Cl | -0.102
11 | CC(/C=N/NC(=O)c1cc(C(C)(C)C)[nH]n1)=C\c1ccccc1 | 5.47
12 | CCNC(=S)N1CCC(C(N)=O)CC1 | 13.1
13 | O=C(N/N=C1\CCCc2ccccc21)c1ccccc1Cl | 8.09
14 | CCOCCCNC(=O)c1cccs1 | 16.3
15 | COC(=O)C1=CNC=C(C(=O)OC)C1c1ccc(C(=O)OC)cc1 | -1.03
16 | O=C(COC(=O)Cc1ccsc1)NCC1CCCCC1 | 2.04
17 | O=c1[nH][nH]c(-c2ccccc2O)c1C(C[N+](=O)[O-])c1cccc(Cl)c1 (stereo not drawn) | 12.6
18 | O=C(CSC(=S)N1CCCC1)Nc1ccc(Br)cc1Cl | 18.1
19 | OCC1(CCOc2ccccc2)CCN(Cc2ccccc2OC(F)F)CC1 | -54.4
20 | CC(c1cccs1)N(C)Cc1nc(CCc2ccccc2)no1 (stereo not drawn) | 4.83
21 | CN1CCN(S(=O)(=O)c2cccc(C(=O)Nc3sccc3C(N)=O)c2)CC1 | -48.2
22 | O=C(C1=NN[C@@H]2C(=O)N(c3cccc(C(F)(F)F)c3)C(=O)[C@H]12)C(c1ccccc1)c1ccccc1 | 13.2
23 | CSc1ccc(/C=C(/NC(=O)c2ccco2)C(=O)N2CCCCCC2)cc1 | 8.23
24 | Cc1ccc(N2C(=O)NC(=O)/C(=C\c3cnc(-c4ccccc4)nc3)C2=O)cc1 | 17.9
